Measured values as given in a collection of fitness landscapes (doi:10.1016/j.celrep.2020.107928).
Whole data set: some 81,000 sequences, median “one-hybrid fitness for binding NBS DNA” near -0.1, cut for the highest 2% near 0.36. The list shows a part of the results.

B1: Caulobacter ParB omega fusion; a variant is named by its letters at X, in order, B8GW30 (parent)
chain: MESVVVGEPGMSEGRRGLGRGLSALLGEVDAAPAQAPGEQLGGSREAPIEILQRNPDQPRRTFREEDLEDLSNSIREKGVLQPILVRPSPDTAGEYQIVAGERAWRAAQRAGLKTVPIMVRELDDLAVLEIGIIENVQRADLNVLEEALSYKVLMEKFERTQENIAQTIGKSXSHVANXMRLLXLPDEVQSYLVSGELTAXHARAIAAAADPVALAKQIIEGGLSVRETEALARKAPNLSAGKSKGGRPPRVKDTDTQALESDLSSVLGLDVSIDHRGSTGTLTITYATLEQLDDLCNRLTRGI

Variants of: B1
Assay: one-hybrid fitness for binding NBS DNA (the Noc-binding site; scaled: cognate 1, non-cognate 0); higher = stronger binding
Settings: with NBS DNA site
Summary of the method: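 Bacterial one-hybrid selection in E. coli USO rpoZ- hisB- pyrF- with a HIS3 reporter carrying the site 19 bp from the promoter, screening Caulobacter ParB libraries with four specificity codons randomised (NNS). Cells grew 48 hours at 37°C on M9-minus-histidine plus 0.1 mM IPTG and 5 mM 3-AT. Plasmids before and after selection were Illumina-sequenced, three replicate libraries pooled, and variants under 10 reads dropped. Fitness is the log change in variant-to-wild-type read ratio, rescaled to cognate 1, non-cognate 0.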

one-hybrid fitness for binding NBS DNA, 0.238:
RKRG

one-hybrid fitness for binding NBS DNA, 0.207:
RQWT

one-hybrid fitness for binding NBS DNA, 0.645:
RKHT

one-hybrid fitness for binding NBS DNA, ≤ 0.2:
IRTH
VACR
VNHV
DVKF
LTAE
GILT
NHAT
WGFR
HIAC
RQVQ
RVLM
SWSP
PGFL
SLHA
VHHD
ACRS
SKAY
TMLV
DINP
KTWP
RLMP
HHQA
IMLV
LCQG
AEPM
LGRS
SQVK
GHVC
QASE
DVVY
LCAS
SQGI
WHPR
PTDL
VVNT
NMYK
THYM
SDSR
DYRT
LSVR
KRDI
DPPK
VHMR
KLQI
AHME
PKCS
CFAS
NYWG
RTDA
ALNR
GAFF
TETE
PKHP
LYCE
KPRF
VNAM
LVVL
LAPF
RGPM
KARG
PYGL
CECW
TPNC
GEMY
KHTY
YKGS
QLIN
FIVS
SPWR
YSDE
QWSV
SLNV
YGED
RKLL
NAAI
DRHH
LGRP
CTMP
PYVS
RIWV
PAAF
QLVI
CIRN
WSLT
CWRS
PCTT
RHGN
PNYI
DYPG
KYTC
AFWS
PVFS
GPDR
NLEN
FNLG
TMKH
LFES
KDID
KVEV
DTRN
SCQW
IMKG
KSIE
RHFV
SSKL
MLVT
RPPA
SWSC
AEPY
LYKF
HACC
GSVW
ILKW
EYWV
IRAC
QDQF
EAKC
VDLS
ILNL
YART
AKDP
AANL
GEYS
QVLY
WTEY
NRHR
GHTG
QWRL
QKDL
HFQC
MAPA
YSSF
FVLS
NLGA
KTKP
PPEF
DECI
WAYA
ASFC
GQSC
TSMC
RCPT
CRYV
SIPA
YWNG
QKTQ
ADPT
WFCS

one-hybrid fitness for binding NBS DNA, 0.702:
RRLR

one-hybrid fitness for binding NBS DNA, 0.493:
TSSQ
